Test results from PubChem BioAssay AID1794770 (DTP/NCI, 2022).
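Each cell line was grown in a 96-well plate and treated with one concentration of compound for 48 hours. Values below 10 were considered active.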 The source holds more than one record for some entries. They are shown here; other results are not. There may be further records. These are repeated runs of one drug, at its own concentration, as given; each value is one run.

Tested on: RXF-631 renal
Experiment: NCI-60 one-dose screen, 48 h (100 = growth as untreated, 0 = no growth, -100 = all killed)
Conditions: 2.5 mM
Procedure: Growth inhibition of the RXF-631 human tumor cell line is measured as a screen for anti-cancer activity. Cells are grown in 96 well plates and exposed to the test compound for 48 hours. Compounds are tested at a single concentration, which is 10^-5 M for most compounds. The reported endpoint is percent growth (GI% or GIPRCNT), where numbers from 0 - 100% represent growth inhibition, and numbers from -100% - 0 represent cell death. For example, a value of 40 represents 60% growth inhibition. A value of 0 means no net growth occurred over the course of the experiment. A value of -40 indicates 40% of cells at the beginning of the experiment died by the end of the experiment. A value of -100 means all cells are dead at the end of the experiment.
NCI-60 Human Tumor Cell Lines Screen was performed using the standard one-dose NCI protocol, which is described in more detail at https://dtp.cancer.gov/discovery_development/nci-60/default.htm.
Compounds with GIPRCNT values below 10 were considered active. Activity score was based on GIPRCNT using the following formula: […]
Score is 0 for GIPRCNT values of 100 or above, 50 for GIPRCNT values of 0, and 100 for GIPRCNT values of -100.

O=c1[nH]cc(F)c(=O)[nH]1
growth (runs of 1991): 14.2, 27.6, 30.7, 26, 20.7, 18.9, 27, 20.9, 11.7, 21.4, 35.4, 14.3, 14.1, 16.4, 22.7, 34.1% | growth (runs of 1992): 18.9, 17.7, 10.2, 8.42, 16.1, 15.1, 26.8, 11.8, 27.8, 16.7, 61.4, 18.2, 29.4, 10.4, 31.7, 29.2, 33.7, 14.4, 44.4, 14, -38.9, 13, 32.2, 13.9, 2.31, 6.07%
